18 compounds from the supplement of paper PMC9174493 can be followed below.

Molecules are shown by their SMILES. The list shows a part of the results. Single values of this set are uncertain. Values with irradiation are relative to irradiated vehicle.

The subject of assay [1] is A549-Dual. Briefly: NF-kB reporter (SEAP) activity, viability-corrected, relative to vehicle (fold change vs vehicle); higher = more activation of STING-IRF / NF-kB immune response reporter. The following applies: 10 µM.
Assay [2] relates to A549-Dual. Briefly: ISRE reporter (Lucia luciferase) activity, viability-corrected, relative to vehicle (fold change vs vehicle); higher = more activation of STING-IRF / NF-kB immune response reporter. To be noted: 10 µM.
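Wherever NF-kB reporter (SEAP) activity, viability-corrected, relative to vehicle is given: viability correction based on the alamar blue assay, with concentrations leaving 10% survival or less dropped.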

For `COc1ccc2c3c1OC1CC(O)C=CC31CCN(C)C2` (configuration not stated) [Galanthamine], the NF-kB reporter in the assay on A549-Dual [1] (irradiation: 8 Gy/4 fr) came to 0.89; in the assay with A549-Dual [1] (irradiation: none), 1.11. Besides, the ISRE reporter in the assay with A549-Dual [2] (irradiation: 8 Gy/4 fr) turned out to be 1.07; with A549-Dual [2] (irradiation: none), 1.09.
For `CCCc1cc(=O)[nH]c(=S)[nH]1` [Propylthiouracil], in that order: 0.494, 1.39, 0.0776 and 0.458.
For `O=C(CCCN1CCC(O)(c2ccc(Cl)cc2)CC1)c1ccc(F)cc1` [Haloperidol], in that order: 0.757, 0.92, 0.831 and 0.921.
For `O=c1[nH]c2ccccc2n1CCN1CCN(c2cccc(C(F)(F)F)c2)CC1` [Flibanserin], in that order: 0.443, 0.719, 0.627 and 1.03.
Regarding `O=c1[nH]cnc2[nH]ncc12.[Na+]` [Allopurinol Sodium], the NF-kB reporter in the assay on A549-Dual [1] (irradiation: 8 Gy/4 fr) worked out at 0.811; in the assay on A549-Dual [1] (irradiation: none) it was 0.81. The ISRE reporter with A549-Dual [2] (irradiation: 8 Gy/4 fr) came out at 0.715; in the assay with A549-Dual [2] (irradiation: none), 0.665.
With `C=C1CCC(O)C/C1=C/C=C1\CCCC2(C)C1CCC2C(C)CCCC(C)C` (configuration not stated) [cholecalciferol (Vitamin D3)], the NF-kB reporter with A549-Dual [1] (irradiation: 8 Gy/4 fr) came out at 0.528; with A549-Dual [1] (irradiation: none) it was 0.811. The ISRE reporter in the assay on A549-Dual [2] (irradiation: 8 Gy/4 fr) is 0.369; with A549-Dual [2] (irradiation: none), 0.487.
For `O=C1c2c(O)cccc2C(OC2OC(CO)C(O)C(O)C2O)c2cc(CO)cc(O)c21` (configuration not stated) [Casanthranol], in that order: 0.434, 0.614, 0.497 and 0.42.
For `CCCCN1CCCCC1C(=O)Nc1c(C)cccc1C.Cl` (configuration not stated) [Levobupivacaine HCl], the results for the NF-kB reporter in the assay on A549-Dual [1] (irradiation: 8 Gy/4 fr) and in the assay with A549-Dual [1] (irradiation: none) were 0.598 and 0.725, respectively. For the same compound, the ISRE reporter in the assay with A549-Dual [2] (irradiation: 8 Gy/4 fr) is 0.689; in the assay on A549-Dual [2] (irradiation: none), 0.879.
In the case of `Cl.NC1CCCCN(c2c(F)cc3c(=O)c(C(=O)O)cn(C4CC4)c3c2Cl)C1` (configuration not stated) [Besifloxacin HCl], the figures for the NF-kB reporter in the assay on A549-Dual [1] (irradiation: 8 Gy/4 fr) and in the assay on A549-Dual [1] (irradiation: none) were 0.979 and 0.881, respectively. Also, the ISRE reporter is 0.887 in the assay on A549-Dual [2] (irradiation: 8 Gy/4 fr) and 0.919 with A549-Dual [2] (irradiation: none).
On to `C=CC1=C(C(=O)O)N2C(=O)C(NC(=O)/C(=N\O)c3csc(N)n3)C2SC1` (configuration not stated) [Cefdinir], for which the results for the NF-kB reporter with A549-Dual [1] (irradiation: 8 Gy/4 fr) and in the assay with A549-Dual [1] (irradiation: none) were 0.532 and 1.02, respectively. Also, the figures for the ISRE reporter in the assay with A549-Dual [2] (irradiation: 8 Gy/4 fr) and in the assay on A549-Dual [2] (irradiation: none) were 0.564 and 0.751, respectively.
For the compound `COc1cc(CNC(=O)CCCCCCC(C)C)ccc1O` [Dihydrocapsaicin], the NF-kB reporter with A549-Dual [1] (irradiation: 8 Gy/4 fr) worked out at 0.56; in the assay on A549-Dual [1] (irradiation: none), 0.482. Moreover, the ISRE reporter in the assay on A549-Dual [2] (irradiation: 8 Gy/4 fr) stood at 0.548; in the assay on A549-Dual [2] (irradiation: none), 0.574.
As for `CC1=C(/C=C/C(C)=C/C=C/C(C)=C/CO)C(C)(C)CCC1` [Vitamin A], the NF-kB reporter with A549-Dual [1] (irradiation: 8 Gy/4 fr) came to 0.727; with A549-Dual [1] (irradiation: none), 0.822. The ISRE reporter stood at 0.677 with A549-Dual [2] (irradiation: 8 Gy/4 fr) and 0.753 with A549-Dual [2] (irradiation: none).
Regarding `O=C(Nc1c(Cl)cncc1Cl)c1ccc(OC(F)F)c(OCC2CC2)c1` [Roflumilast], the NF-kB reporter amounted to 0.691 with A549-Dual [1] (irradiation: 8 Gy/4 fr) and 0.934 in the assay with A549-Dual [1] (irradiation: none). In addition, the ISRE reporter with A549-Dual [2] (irradiation: 8 Gy/4 fr) amounted to 0.64; in the assay on A549-Dual [2] (irradiation: none), 0.741.
For `Cc1ccc(=O)n(-c2ccccc2)c1` [Pirfenidone], in that order: 0.805, 0.62, 0.751 and 0.62.
For the compound `COC1(NC(=O)C(C(=O)[O-])c2ccc(O)cc2)C(=O)N2C(C(=O)[O-])=C(CSc3nnnn3C)COC21.[Na+].[Na+]` (configuration not stated) [Latamoxef sodium], the values for the NF-kB reporter with A549-Dual [1] (irradiation: 8 Gy/4 fr) and in the assay with A549-Dual [1] (irradiation: none) were 1.03 and 0.909, respectively. For the same compound, the ISRE reporter in the assay on A549-Dual [2] (irradiation: 8 Gy/4 fr) worked out at 0.885; in the assay on A549-Dual [2] (irradiation: none), 0.706.
For `NCCCCC(N)C(=O)O.O=C(O)COc1nn(Cc2ccccc2)c2ccccc12` [Bendazac L-lysine], in that order: 1.55, 0.728, 1.51 and 0.891.
For `COc1ccc(CN2CCN(C(c3ccc(F)cc3)c3ccc(F)cc3)CC2)c(OC)c1OC.Cl.Cl` [Lomerizine 2HCl], in that order: 0.745, 0.686, 0.916 and 0.86.
In the case of `C/C=C/C=C/C(=O)O` [Sorbic acid], the NF-kB reporter in the assay on A549-Dual [1] (irradiation: 8 Gy/4 fr) worked out at 0.727; in the assay on A549-Dual [1] (irradiation: none), 0.901. The ISRE reporter in the assay with A549-Dual [2] (irradiation: 8 Gy/4 fr) is 0.617; in the assay with A549-Dual [2] (irradiation: none), 0.708.
